# Hit rate of the full screen: of about 52,000 compounds, about 1,700 (3.3%) were called active. Rule as the data show it: active = survival mostly below about 52% (no sharp cut-off); inactive = mostly above about 56%. Some of the results follow.
# System: Wild type
# Assay: S. aureus survival, RN4220 and DeltatarO strains – OD600, teichoic acid synthesis inhibitors, primary screen (AID 463173)
# Conditions: S. aureus RN4220 wild type/DeltatarO growth, OD600, 18 h, hits give low values, screened at 18.75 µg/mL (by protocol)
row,SMILES,survival
1,COc1cccc(-c2cc(C(=O)Nc3c(C)nn(Cc4ccccc4Cl)c3C)no2)c1,inactive: 71%
2,CN1CCN(C2(CNC(=O)c3ccc(C(C)(C)C)cc3)CCCCC2)CC1,inactive: 85%
3,C#CCn1c(C2CC(=O)N(c3ccc(OC)cc3)C2)nc2ccccc21 (stereo not drawn),inactive: 82%
4,COc1cccc(CNC(=O)Cn2c(=O)ccc3cc(S(=O)(=O)N4CCC(C)CC4)ccc32)c1,inactive: 80%
5,COc1cccc(C(=O)NCc2ccc3c(c2)CCN3C(=O)c2ccncc2)c1,inactive: 69%
6,COc1ccc(-n2c3c(c(=O)[nH]c2=O)C(NC(=O)c2ccccc2Cl)(C(F)(F)F)C(=O)N3)cc1 (stereo not drawn),inactive: 67%
7,COc1ccccc1-c1nc(SCC(=O)c2ccccc2)n[nH]1,inactive: 77%
8,COc1ccc(-c2[nH]c(-c3cccc(OC)c3)nc2SCC(=O)Nc2ccc3c(c2)OCO3)cc1,inactive: 67%
9,Cc1ccc2[nH]c3c(=O)n(N)c(C)nc3c2c1,inactive: 115%
10,COc1ccc(CNc2nc(SCc3ccc(Cl)cc3)nc3ccccc23)cc1,inactive: 81%
11,Cn1cccc1/C=N/NC(=O)c1ccccn1,inactive: 105%
12,CCCCCN1C(C(=O)c2ccccc2)=C(NC(=O)c2ccc(OC)cc2)c2ccccc2S1(=O)=O,inactive: 68%
13,O=C(Nc1ccc(C(=O)N2CCN(c3cccc(Cl)c3)CC2)cc1)c1nsc2ccccc12,inactive: 63%
14,COc1ccc(NC(=O)c2ccc(-c3nc(CSc4ccc(C)cc4)c(C)o3)cc2)cc1Cl,inactive: 57%
15,COc1ccc(-c2c3c(=O)n(C)c(=O)n(C)c3c3n2-c2ccccc2NC3c2ccc(OC)cc2)cc1 (stereo not drawn),active: 8%
16,Cc1ccc(NC(=O)c2cc(S(=O)(=O)N(C)C3CCCCC3)ccc2F)cc1C,inactive: 53%
17,COc1ccccc1C(=O)Oc1c(Sc2ccccc2)c(C)nn1C(C)(C)C,inactive: 86%
18,CC(C)N(C(=O)N1CCC(c2ccccc2F)CC1)C(C)C,inactive: 94%
19,CCc1nnc(NC(=O)c2nc(S(=O)(=O)Cc3ccc(C)cc3)ncc2Cl)s1,inactive: 57%
20,O=C(c1ccc(N2CCOCC2)cc1)c1cccs1,inactive: 105%
21,COC(=O)c1ccc(CSc2nc(-c3ccco3)cc(C(F)(F)F)n2)o1,inactive: 116%
22,CCC(=O)N1CCc2cc(S(=O)(=O)NC(C(=O)NCCc3ccccc3)C(C)C)ccc21 (stereo not drawn),inactive: 83%

row,SMILES,survival
1,Cc1cc(C)c(NC(=O)C(C)n2c(=O)c(C(F)(F)F)nc3ccccc32)c(C)c1 (stereo not drawn),inactive: 69%
2,Cc1cccc(-n2ncc(C(=O)N3CCN(C4CCCCC4)CC3)c2C2CCN(C(=O)OC(C)(C)C)CC2)c1,inactive: 78%
3,COc1ccc(OC)c2sc(NC(=O)c3ccc(S(=O)(=O)N4CCCC4)cc3)nc12,inactive: 128%
4,CCOC(=O)CC(NC(=O)CCc1c(C)nc2c(c(C)nn2-c2ccc(C)c(C)c2)c1C)c1ccc(C)cc1 (stereo not drawn),inactive: 123%
5,Cc1cc(C)cc(OCC(=O)Nc2nc3c(s2)CC(C(C)(C)C)CC3)c1 (stereo not drawn),inactive: 108%
6,Cc1c(Cl)cccc1NC(=O)c1cccc(NC(=O)N2CCSc3ncccc32)c1,inactive: 59%
7,CC(NC(=O)c1ccc2c(c1)CCN2S(C)(=O)=O)c1ccccc1 (stereo not drawn),inactive: 85%
8,CCOc1ccc(NC(=O)CSC2=Nc3ccccc3C3=NC(CCC(=O)NCc4ccccc4)C(=O)N23)cc1 (stereo not drawn),inactive: 88%
9,Cc1ccc(CNC(=O)c2ccc3c(c2)nc(C)n3-c2cccc(F)c2)cc1,inactive: 91%
10,Cc1cc(C(F)(F)F)n2nc(-c3ccc(Br)cc3)cc2n1,inactive: 78%
11,c1ccc(C(c2nnnn2C2CCCC2)N2CCN(c3ccccc3)CC2)cc1 (stereo not drawn),inactive: 108%
12,CCCCOc1ccc(-c2nn(-c3ccccc3)cc2C2NC(=O)NC(C)=C2C(=O)OCC)cc1 (stereo not drawn),inactive: 73%
13,CN1CCN(CC(=O)NCCc2ccc(F)cc2)CC1,inactive: 105%
14,O=C(c1cc2ccccc2oc1=O)N1CCN(c2ccc(Cl)cc2)CC1,inactive: 71%
15,O=C(NCCc1ccccc1)c1cnc2sc(N3CCCCCC3)nn2c1=O,inactive: 72%
16,Cc1cc2oc(C(=O)Nc3ccc(S(N)(=O)=O)cc3)cc(=O)c2cc1C,inactive: 84%
17,CCc1ccc(C(=O)c2cn(CC(=O)Nc3cccc(OC)c3)c3ccc(OC)cc3c2=O)cc1,inactive: 77%
18,COc1ccc(OCC(=O)NCc2ccc3c(c2)CCN3C(=O)c2ccccc2)cc1,inactive: 81%
19,COc1ccccc1N1CCN(c2ncnc3c2cnn3-c2cc(Cl)ccc2C)CC1,inactive: 136%
20,Cc1ccc(C(=O)N2c3ccc(C)cc3C(C)(c3ccccc3)CC2(C)C)cc1 (stereo not drawn),active: 2%
21,CCc1cccc(NC(=O)CN2C(=O)COc3ccc(S(=O)(=O)Nc4ccccc4)cc32)c1,inactive: 72%
22,Cc1ccc(CSc2nc3ccc(NC(=O)COc4ccccc4)cc3s2)cc1,inactive: 88%

row,SMILES,survival
1,CCOC(=O)c1ccc(N2C(=O)c3[nH]nc(-c4ccc(C)cc4)c3C2c2cccc(F)c2)cc1 (stereo not drawn),inactive: 88%
2,O=C1OC(C(=O)Nc2cccc(Br)c2)Cc2ccccc21 (stereo not drawn),inactive: 84%
3,COc1ccc(CNC(=O)Cn2c(SCC(=O)Nc3ccc(OC)cc3)nc3ccccc32)cc1,inactive: 69%
4,Cc1cccc(-n2ncc(C(=O)N3CCN(c4ccc(Cl)cc4)CC3)c2C2CCN(C(=O)OC(C)(C)C)CC2)c1,inactive: 105%
5,Cn1nc(C(=O)NCc2ccc(Cl)cc2)c2c1-c1ccccc1S(=O)(=O)C2,inactive: 87%
6,Cc1ccc(OCc2nc(-c3ccc(C(=O)N4CCN(c5ccccc5F)CC4)cc3)oc2C)cc1,inactive: 71%
7,CCNC(=S)N1CCC(C(=O)c2ccc(Cl)cc2)CC1,inactive: 96%
8,COc1ccc(C2C(C#N)=C(N)Oc3c2ccc2cccnc32)cc1 (stereo not drawn),inactive: 106%
9,COc1ccc(OC)c(CNC(=O)c2cc3c(-c4ccc(OC)c(OC)c4)nn(C)c3s2)c1,inactive: 80%
10,CCc1ccc2nc(N(CCN(CC)CC)C(=O)c3ccco3)sc2c1,inactive: 53%
11,Cc1ccc(NC(=O)c2ccc(-c3cccc(Cl)c3C)o2)cc1,active: 1%
12,CCCCCn1c(=O)[nH]c2cc(C(=O)Nc3cc(C)cc(C)c3)ccc2c1=O,inactive: 68%
13,CN(C)S(=O)(=O)N(CC(=O)NCCSCc1ccccc1)c1ccccc1,inactive: 68%
14,C=CCNC(=O)CSc1nc(-c2ccco2)cc(C(F)(F)F)n1,inactive: 107%
15,CC[n+]1c(C)oc2ccc(OC)cc21,inactive: 95%
16,COc1ccc(Cl)cc1NC(=O)c1cc(S(=O)(=O)NC2CCCCCC2)ccc1F,inactive: 83%
17,Cc1ccc(C)c(NC(=O)CN2CCCN(Cc3cccc(Cl)c3)S2(=O)=O)c1,inactive: 76%
18,Cc1cccc(N2C(=O)N(CC(=O)C(C)(C)C)c3ccccc3S2(=O)=O)c1C,inactive: 55%
19,Cc1cc(OC(C)C(=O)Nc2c(C(=O)c3ccc(F)cc3)oc3ccccc23)ccc1Cl (stereo not drawn),inactive: 68%
20,Cc1cccc(NC(=O)CSc2cn(CC(=O)N3CCCCCC3)c3ccccc23)c1,inactive: 107%
21,CCc1ccc(Sc2cc(C(=O)NCc3ccccc3OC)c3ccccc3n2)cc1,inactive: 68%
22,CCOc1ccc(N2CC(NC(=O)C(=O)c3c[nH]c4ccccc34)CC2=O)cc1 (stereo not drawn),inactive: 93%

row,SMILES,survival
1,CCn1c(=O)cc(SCC(=O)NCc2ccc(F)cc2Cl)c2ccccc21,inactive: 91%
2,CCc1ccc(Sc2cc(C(=O)NCc3cccc(OC)c3)c3ccccc3n2)cc1,inactive: 69%
3,COc1ccc(C2NC(=O)N(C)C3=C2C(=O)N(c2cccc(Cl)c2)C3)cc1 (stereo not drawn),inactive: 75%
4,COC(=O)c1ccc(OCC2c3cc(OC)c(OC)cc3CCN2C(=O)Cc2ccc(OC)cc2)cc1 (stereo not drawn),inactive: 71%
5,O=C(NCCCc1ccccc1)c1nn(-c2ccccc2F)nc1CO,inactive: 89%
6,COc1cccc(CNC(=O)c2c(C)nn(-c3cccc(C)c3)c2-n2cccc2)c1,inactive: 71%
7,O=C(NCCc1ccccc1)c1ccc(CSc2nc3cccnc3n2Cc2ccc(F)cc2)cc1,inactive: 90%
8,CCOC(=O)CSc1nnc(-c2ccccc2NC(=O)c2ccccc2)o1,inactive: 108%
9,Cc1nc(-c2ccc(C)c(N3CCN(C(=O)Nc4ccccc4C(F)(F)F)CC3)c2)no1,inactive: 69%
10,CC(=O)c1ccc(NC(=O)C2CCC(CNS(=O)(=O)c3ccc(Br)s3)CC2)cc1 (stereo not drawn),inactive: 66%
11,O=C(NC(=O)c1cccc(F)c1)Nc1ccc(-c2cc(C(F)(F)F)nn2-c2ccccc2)cc1,inactive: 130%
12,Cc1ccc(C(=O)Nc2nnc(S(=O)(=O)N3CCOCC3)s2)cc1,inactive: 68%
13,CCC(C)(C)n1nnnc1C(C(C)C)N(Cc1cccnc1)Cc1ccco1 (stereo not drawn),inactive: 120%
14,COC(=O)c1ccc(NC(=O)C2(S(=O)(=O)c3ccc(C)cc3)CC2)cc1,inactive: 133%
15,Cc1cc(Cl)nc2ccc(Cl)cc12,inactive: 94%
16,COC(=O)c1sc(-c2ccccc2)cc1NC(=O)c1cccc(F)c1,inactive: 87%
17,Cc1ccc(CN2CCCn3nc(C(=O)NCCC(C)C)cc3C2=O)cc1,inactive: 101%
18,O=C(NCc1ccc(F)cc1)C1CCN(C(=O)c2ccc(-n3ccc4ccccc43)s2)CC1,inactive: 59%
19,COc1cc2c(cc1OC)C1=C(C#N)CN(C3CCCCC3)CN1CC2,inactive: 103%
20,Cc1ccc(S(=O)(=O)N2CCC(Oc3ccc(-n4cnnn4)cc3)CC2)cc1,inactive: 86%
21,COc1ccc(CC(=O)Nc2ccc3nc(Nc4cccc(Cl)c4)cc(C)c3c2)cc1OC,inactive: 64%
22,COc1ccccc1-n1cc(-c2ccc(C)cc2)nc1S(=O)(=O)CC(=O)Nc1ccccc1C(F)(F)F,inactive: 129%

# — PubChem BioAssay AID463173 (ICCB-Longwood Screening Facility, Harvard Medical School, 2010)
